# Assay results reported in PubChem BioAssay AID624296 (National Center for Advancing Translational Sciences (NCATS), 2012).
# Screen size: about 350,000 compounds; about 9,900 (2.8%) were called active. The shares of active, inactive and inconclusive entries below differ from those in the screen. The call rests on the fitted dose curve; in most records, active means well fitted activation curve with a large enough effect; inconclusive means small, poorly fitted or top-dose-only effect; inactive means no such curve, though single readings can be large or run the other way. Potencies of inconclusive entries are left out as doubtful fits.
# Test: A quantitative high throughput screen for small molecules that induce DNA re-replication in MCF 10a normal breast cells. Further: nearly all actives have a fitted effect of over 50% in size.
# Details: MCF 10A DNA re-replication, Hoechst nuclear intensity, 48 h; series mostly up to 46.1 µM
# Potency means the concentration at half of the fitted maximal effect; tags describe the fitted curve by direction and shape.
row,SMILES,Potency
1,COc1ccc(N2CCN(C(=O)CSc3ncnc4c3cnn4-c3ccccc3C)CC2)cc1,"inconclusive [activator, partial curve]"
2,CC1(C)CC(=O)C/C(=N/NC(=O)CCCOc2ccc(Cl)cc2Cl)C1,"inconclusive [activator, partial curve, poor fit]"
3,O=C(NCC(=O)N(c1cnc2ccccc2c1)C(C(=O)NC1CCCC1)c1ccncc1)c1ccco1 (stereo not drawn),inactive
4,CCOc1ccccc1NC(=O)COC(=O)CC(C)(C)CC1=NS(=O)(=O)c2ccccc2N1,"inconclusive [activator, single point]"
5,Cc1nc2ccccc2c2oc(C(=O)Nc3ccc4c(c3)OCCO4)cc12,inactive
6,CCOc1ccccc1NC(=O)Nc1ccc(Br)cc1C,"inconclusive [activator, single point]"
7,CS(=O)(=O)c1ccc2c(c1)sc1nc(=O)c(/C=C3/C=CC(=O)C(O)=C3)c(N)n12,"inconclusive [activator, full curve, poor fit]"
8,C/C(=N\Nc1ccc([N+](=O)[O-])cc1)c1ccc(-n2nncc2C)cc1,"inconclusive [activator, single point]"
9,COC(=O)COc1cccc2c(=O)n(CC(=O)N3CCC(C)CC3)ccc12,inactive
10,COc1ccc(Nc2nc(-c3ccccc3)nc3ccccc23)cc1S(=O)(=O)N1CCOCC1,"inconclusive [activator, full curve, poor fit]"
11,CCOC(=O)c1nc2sc(C)c(C)c2c(=O)[nH]1,inactive
12,O=C(NCCc1cccs1)C12CN(Cc3ccccc3)CC1C(c1cccc([N+](=O)[O-])c1)=NO2 (stereo not drawn),"inconclusive [activator, full curve, poor fit]"
13,Cc1ccc(OC(C)C(=O)Nc2ccncc2)cc1C (stereo not drawn),inactive
14,O=C(Nc1cc(-c2ccccc2)nn1C1CCCCC1)c1ccc(Cl)cc1,"inconclusive [activator, single point]"
15,Cc1cccn2c(=O)c3cc(C(=O)NC4CCCC4)c(=N)n(Cc4ccc(F)cc4)c3nc12,active: 2.31 µM
16,O=C(NCc1ccccc1)C(c1ccccc1)N(Cc1cccs1)C(=O)c1cnccn1 (stereo not drawn),"inconclusive [activator, partial curve, poor fit]"
17,Cc1[nH]c2ccc(OC(=O)N3CCOCC3)cc2c1C(=O)OC(C)C,inactive
18,COc1ccc(N2CCN(S(=O)(=O)CCNC(=O)c3ccco3)CC2)cc1,inactive
19,CC(Nc1ccc(F)cc1)=[N+](C)CCNS(=O)(=O)c1ccc(Cl)cc1,inactive
20,O=C(CSc1nnc(CNC(=O)c2cccs2)o1)Nc1ccccc1,inactive
21,CCOC(=O)c1c(NC(=O)COC(=O)c2nccnc2N)sc2c1CCC2,"inconclusive [activator, partial curve, poor fit]"
22,CCCCCc1cc(=O)oc2c(C(CCN(CC)CC)c3ccc(OC)cc3)c(OC)cc(OC)c12 (stereo not drawn),"inconclusive [activator, single point]"
23,Cc1cc(C)c2c(=O)[nH]c(SCC(=O)N(C)C)nc2n1,"inconclusive [activator, single point]"

row,SMILES,Potency
1,C=CCc1ccc(OCCn2cccc2C=O)c(OC)c1,inactive
2,CC(=O)Nc1ccc(NC(=O)C(C)OC(=O)CSCc2cccc(Cl)c2)cc1 (stereo not drawn),"inconclusive [activator, partial curve]"
3,COc1c2c(cc3oc(=O)c4c5ccc(O)cc5oc4c13)OC(C)(C)CC2,"inconclusive [activator, full curve, poor fit]"
4,CCOc1ccc(/C=N/N2C(=O)C(CC(=O)Nc3ccc(F)cc3F)SC2=NC)cc1OC (stereo not drawn),"inconclusive [activator, single point]"
5,COc1ccc(OCCC(=O)NC2=NCCS2)cc1,inactive
6,COc1ccc2nc(/N=C(\N)NC(=O)Nc3ccccc3)nc(C)c2c1,"inconclusive [activator, single point]"
7,COc1cc(NC(=O)COC(=O)Cc2ccc(-c3ccccc3)cc2)cc(OC)c1,"inconclusive [activator, full curve, poor fit]"
8,NC(=O)c1cc(S(=O)(=O)NCc2cccc(Br)c2)cs1,"inconclusive [activator, partial curve]"
9,COc1ccc(C(O)(c2ccccc2)C(C(=O)O)c2ccccc2)cc1 (stereo not drawn),"inconclusive [activator, single point]"
10,Oc1ccc(Cl)cc1-c1cc(-c2cccc(Br)c2)n[nH]1,"inconclusive [activator, single point]"
11,Cc1ccc2nsnc2c1NC(=O)c1ccc2c(c1)OCCO2,"inconclusive [activator, single point]"
12,Cc1cccc2c1-c1sc(C(=O)NCCCN3CCc4ccccc4C3)cc1CO2,"inconclusive [activator, single point]"
13,CN1/C(=C\C(=O)c2cccs2)C(C)(C)c2ccccc21,active: 4.11 µM
14,Clc1ccc(C(Cn2ccnc2)OCc2c(Cl)cccc2Cl)c(Cl)c1 (stereo not drawn),active: 4.61 µM
15,COc1ccc(OCC(=O)N2CCC3(CC2)CC(=O)c2ccccc2O3)cc1,inactive
16,COc1ccc(Oc2nc3c(C)cccn3c(=O)c2/C=C(\C#N)C(N)=O)cc1,"inconclusive [activator, partial curve, poor fit]"
17,CSC1=C(C#N)C(c2ccccc2Cl)C(C(C)=O)=C(C)N1 (stereo not drawn),inactive
18,Cc1ccc(-n2c(=O)c(C#N)cc3c(=O)n4ccccc4nc32)cc1,"inconclusive [activator, single point]"
19,CN(Cc1cccs1)C(=O)c1ccc(Cl)c(S(=O)(=O)N2CCCCCC2)c1,"inconclusive [activator, partial curve]"
20,CCN(CC)c1ccc(/C=N/N(c2ccccc2)c2ccccc2)c(O)c1,"inconclusive [activator, partial curve, poor fit]"
21,c1ccn2c(SCc3ccc4c(c3)OCCO4)nnc2c1,inactive
22,CC(C)Cn1c(N)c(C(=O)COC(=O)c2cc(S(=O)(=O)N3CCOCC3)ccc2Br)c(=O)n(C)c1=O,"inconclusive [activator, partial curve]"
23,CCOc1ccc(-c2nnn(CC(=O)NCc3ccco3)n2)cc1,"inconclusive [activator, single point]"

row,SMILES,Potency
1,COc1cc(NC2c3ccccc3C(=O)N2Cc2ccccc2Cl)cc(OC)c1 (stereo not drawn),inactive
2,O=[N+]([O-])c1ccc(N2CCCCCC2)c([N+](=O)[O-])c1,"inconclusive [activator, partial curve, poor fit]"
3,COc1cc(CNCc2ccccn2)ccc1OCc1ccc(Cl)cc1,"inconclusive [activator, single point]"
4,CCOC(=O)c1c(-c2ccc(OC)cc2)csc1/N=C/C1=C(O)CCCC1=O,"inconclusive [activator, single point]"
5,CC(C)CCn1c(=O)c(C(=O)N/N=C/c2cccc(F)c2)c(O)c2ccccc21,inactive
6,CCOC(=O)N1CCN(S(=O)(=O)c2c(C)nn(C)c2C)CC1,inactive
7,O=C1CS/C(=N/N=C/c2ccccc2)N1c1ccc(O)cc1,"inconclusive [activator, single point]"
8,CCCCNC(=S)Nc1ccc(C(F)(F)F)cc1,"inconclusive [activator, single point]"
9,Cc1ccc(-n2c(C)cc(C(=O)CSc3nnnn3C)c2C)cc1,"inconclusive [activator, partial curve, poor fit]"
10,COc1ccccc1NC(=O)CSc1nc(=O)n(CCN2CCOCC2)c2c1CCC2,inactive
11,COC(=O)C1=C(C)N(CCCC(=O)O)C(=O)NC1c1ccc(Br)cc1 (stereo not drawn),"inconclusive [activator, full curve, poor fit]"
12,Cc1c(CCOC(=O)CC23CC4CC(CC(C4)C2)C3)sc[n+]1Cc1ccccc1,"inconclusive [activator, single point]"
13,CC(=O)c1cccc(S(=O)(=O)NCC(C)(C)N2CCOCC2)c1,inactive
14,Cc1cccc(N2CCN(C(=O)NCc3ccc(Cl)cc3)CC2)c1,"inconclusive [activator, single point]"
15,CCS(=O)(=O)n1nc(-c2ccc(Cl)cc2)nc1SCc1ccccc1,"inconclusive [activator, single point]"
16,COc1ccc(C(=O)c2cc(C(C)=O)c(Nc3ccccc3)s2)cc1,inactive
17,CC1CC(C)CN(CC(=O)N2CCCc3c2c(=O)oc2ccc(OCc4ccccc4)cc32)C1 (stereo not drawn),"inconclusive [activator, single point]"
18,Cc1ccc(S(=O)(=O)ON2C(=O)c3ccccc3C2=O)c(C)c1,active: 13 µM
19,CC(C)(C)c1ccc(CN2N=Nc3ccccc3S2(=O)=O)cc1,"inconclusive [activator, full curve]"
20,CC(=O)Nc1ccc(S(=O)(=O)N(C)c2ccc(OCC(=O)Nc3ccccc3C(C)=O)cc2)cc1,"inconclusive [activator, single point]"
21,O=[N+]([O-])c1ccc2c(c1)c1ccccc1n2CCO,"inconclusive [activator, partial curve, poor fit]"
22,CCCCCCCCCCCCCC(=O)OCC(COP(=O)([O-])OCC[N+](C)(C)C)OC(=O)CCCCCCCCCCCCC (stereo not drawn),inactive
